The whole screen tested about 310,000 compounds, of which about 2,200 (0.71%) showed an effect of 50% or more. Effects have a minus sign here. The list shows a part of the results.

human ether-à-go-go-related gene (hERG) potassium channel, sequence (Q12809 whole entry, looked up): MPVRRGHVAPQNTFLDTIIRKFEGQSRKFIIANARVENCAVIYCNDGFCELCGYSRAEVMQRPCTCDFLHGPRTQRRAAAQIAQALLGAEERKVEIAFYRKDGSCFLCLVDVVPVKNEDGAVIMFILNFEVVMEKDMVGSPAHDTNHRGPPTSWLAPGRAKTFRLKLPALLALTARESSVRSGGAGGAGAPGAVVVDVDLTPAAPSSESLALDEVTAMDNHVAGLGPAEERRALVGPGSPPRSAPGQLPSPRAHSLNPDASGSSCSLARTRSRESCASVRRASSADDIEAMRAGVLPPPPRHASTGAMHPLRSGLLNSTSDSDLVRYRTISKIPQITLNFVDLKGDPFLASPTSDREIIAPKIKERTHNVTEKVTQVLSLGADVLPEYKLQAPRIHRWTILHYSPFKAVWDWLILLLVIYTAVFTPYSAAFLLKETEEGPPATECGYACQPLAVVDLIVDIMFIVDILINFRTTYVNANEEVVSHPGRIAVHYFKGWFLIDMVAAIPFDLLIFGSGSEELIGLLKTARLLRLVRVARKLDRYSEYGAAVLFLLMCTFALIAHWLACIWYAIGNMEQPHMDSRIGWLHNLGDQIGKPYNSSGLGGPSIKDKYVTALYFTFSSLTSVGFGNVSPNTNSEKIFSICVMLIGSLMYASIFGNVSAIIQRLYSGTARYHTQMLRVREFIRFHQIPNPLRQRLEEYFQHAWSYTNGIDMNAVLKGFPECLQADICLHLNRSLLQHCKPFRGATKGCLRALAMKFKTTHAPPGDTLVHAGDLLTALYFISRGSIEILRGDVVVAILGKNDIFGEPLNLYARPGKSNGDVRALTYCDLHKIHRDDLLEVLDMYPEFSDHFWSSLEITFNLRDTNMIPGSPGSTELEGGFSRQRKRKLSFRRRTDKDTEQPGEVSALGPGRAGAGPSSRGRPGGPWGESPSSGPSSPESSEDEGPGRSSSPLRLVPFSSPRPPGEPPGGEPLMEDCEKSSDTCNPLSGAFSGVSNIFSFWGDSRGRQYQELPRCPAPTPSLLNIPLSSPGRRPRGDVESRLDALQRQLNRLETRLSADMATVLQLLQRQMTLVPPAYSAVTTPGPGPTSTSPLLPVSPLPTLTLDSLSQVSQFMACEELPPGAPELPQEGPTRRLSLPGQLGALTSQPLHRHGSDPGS

This experiment addresses human ether-à-go-go-related gene (hERG) potassium channel (human, UniProt Q12809). Description: primary screen, population patch clamp on CHO cells stably expressing hERG.
Take `CC(C)(C)OC(=O)NCCc1nnc(SCc2ccc(Cl)cc2Cl)o1`: the “hERG current change (%, negative = inhibition) at 1uM” value was determined as 1.7%.
Consider `COc1ccc(C2(C(=O)Nc3ccc(S(N)(=O)=O)cc3)CCCC2)cc1`, for which the “hERG current change (%, negative = inhibition) at 1uM” value turned out to be 6.12%.
Take `CCCCNC(=O)c1c(CSc2ccc(Cl)cc2)noc1C(=O)NCCC`: the “hERG current change (%, negative = inhibition) at 1uM” value is 2.12%.
In the case of `Cc1cc(C)nc(SCc2cc(=O)c(OC(=O)c3ccc(S(=O)(=O)N(C)C)cc3)co2)n1`, the “hERG current change (%, negative = inhibition) at 1uM” value is listed as 6.61%.
Take `O=C(O)CCCN1C(=O)c2ccccc2Sc2ncccc21`: the “hERG current change (%, negative = inhibition) at 1uM” value amounted to 7.54%.
For `Cc1ccc(N=Cc2c(O)n(-c3nccs3)c(=O)c3ccccc23)cc1` the value was 13.8%; for `O=C(CNC(=O)/C=C/c1ccco1)N=Nc1c(O)[nH]c2ccccc12`, 13.4%; for `CC(C(=O)NCc1cccs1)n1cccc1` (stereo not shown), 7.71%.
For `CCNC(=O)CSc1nc2ccccc2c(=O)n1CCCOC(C)C` the value was 1.52%; for `CC1CCN(S(=O)(=O)c2ccc(NC(=O)CN3CCCCCC3)cc2)CC1`, 9.31%.
For `COCCNC(=O)CCCC(=O)NCCOC`, the “hERG current change (%, negative = inhibition) at 1uM” value came out at 17.4%.
As for `Cc1cc(C)cc(N(C(=O)CCC(=O)Nc2cc(C)on2)C(C(=O)NC2CCCC2)c2ccco2)c1` (stereo not shown), the “hERG current change (%, negative = inhibition) at 1uM” value is 9.51%.
As for `CC1(CCBr)C(=O)N(c2ccccc2)c2ccccc21` (stereo not shown), the “hERG current change (%, negative = inhibition) at 1uM” value is given as 12.6%.
Regarding `Cc1nnc(N2CCCC(C(=O)Nc3cc(F)ccc3F)C2)c2nn(-c3ccccc3)c(C)c12` (stereo not shown), the “hERG current change (%, negative = inhibition) at 1uM” value is listed as 28.3%.
With `CCCCn1c(N)c(N(CC)C(=O)C(c2ccccc2)c2ccccc2)c(=O)[nH]c1=O` the figure was 7.33%; with `CC(C)c1ccc(C2=C(O)c3ccccc3C(=O)C2=O)cc1`, -2.48%.
For `CCOC(=O)C1=C(C)N=C2SCCC(=O)N2C1c1cc(Br)ccc1OC` (stereo not shown), the “hERG current change (%, negative = inhibition) at 1uM” value is reported as 4.22%.
For `Cc1ccc(C(C(=O)NC2CCCC2)N(C(=O)CCC(=O)Nc2cc(C)on2)c2ccccc2)cc1` (stereo not shown) the value was -1.94%; for `COc1ccc(CNS(=O)(=O)c2cc(CN3C(=O)c4cccnc4C3=O)ccc2OC)cc1`, 14.8%.
With `CCN(CC)C(=O)COC(=O)C1CCN(S(=O)(=O)c2ccc3c(c2)OCCO3)CC1` the figure was 0.008%; with `CC(=O)NS(=O)(=O)c1ccc2c(c1)C(=O)c1cc(S(=O)(=O)NC(C)=O)ccc1-2`, 14.7%.
With `Cc1nc(C(F)(F)F)ccc1C(=O)Nc1ccc2ccccc2n1` the figure was 8.39%; with `CCOC(=O)C1CCN(Cc2coc3ccc(Cl)cc3c2=O)CC1`, -7.34%.
`Cc1ccc2[nH]c3c(c2c1)CCCC3NCCO.Cl` (stereo not shown): the “hERG current change (%, negative = inhibition) at 1uM” value was found to be 8.36%.
Regarding `Cc1cccc(CNc2ncnc3ccc(-c4ccc5c(c4)OCCO5)cc23)c1`, the “hERG current change (%, negative = inhibition) at 1uM” value turned out to be 14.2%.
Take `Oc1ccccc1/C=N/Nc1ccnc(SCc2ccccc2)n1`: the “hERG current change (%, negative = inhibition) at 1uM” value stood at 13.3%.
Consider `Cc1ccc(S(=O)(=O)N2CCOC23CCN(S(=O)(=O)c2cccs2)CC3)cc1`, for which the “hERG current change (%, negative = inhibition) at 1uM” value is on record as -1.58%.
For `COc1ccc(S(=O)(=O)N2CCC(C(=O)NCCOc3ccccc3F)CC2)cc1OC`, the “hERG current change (%, negative = inhibition) at 1uM” value amounted to 10.8%.
In the case of `COc1ccc(Cl)cc1NC(=S)NNC(=O)c1cccnc1`, the “hERG current change (%, negative = inhibition) at 1uM” value worked out at 22.1%.
Regarding `CCc1cc(C(=O)Cc2cnn(-c3ccccc3)c2)c(O)cc1O`, the “hERG current change (%, negative = inhibition) at 1uM” value is on record as -1.87%.
On to `N#Cc1c(Nc2ccc(F)cc2)sc(C(=O)c2ccccc2)c1N`, for which the “hERG current change (%, negative = inhibition) at 1uM” value was -0.643%.
Take `CCOC(=O)c1c(C)n(C)c2ccc(OCC(O)CNCCc3ccccc3)cc12` (stereo not shown): the “hERG current change (%, negative = inhibition) at 1uM” value is given as 7.51%.
For the compound `O=S(=O)(c1ccccc1)N(CC(O)CN1CCOCC1)c1ccccc1` (stereo not shown), the “hERG current change (%, negative = inhibition) at 1uM” value worked out at 9.04%.
In the case of `Cc1ccsc1CN1CCN(c2ccccn2)CC1`, the “hERG current change (%, negative = inhibition) at 1uM” value turned out to be 0.592%.
With `Cc1ccc(S(=O)(=O)N2CCC(C(=O)N[C@H](C(=O)NCC3CCCO3)C(C)C)CC2)cc1` (stereo partly shown) the figure was 4.46%; with `COC(=O)c1scc(C)c1NC(=O)/C=C/C(=O)O`, 14%; with `CC(NC(=O)c1ccccc1NC(=O)CN1CCN(c2ccccc2O)CC1)c1ccccc1` (stereo not shown), 11.5%.
Regarding `Cc1cccc(C)c1NC(=O)COc1ccc2c(C)c(Cc3ccccc3)c(=O)oc2c1`, the “hERG current change (%, negative = inhibition) at 1uM” value was 5.44%.
For the compound `O=C(Nc1ccccc1)Nc1c(F)cccc1F`, the “hERG current change (%, negative = inhibition) at 1uM” value turned out to be 16.1%.
As for `Fc1ccc(NCc2n[nH]c(=S)n2Cc2ccccc2)cc1`, the “hERG current change (%, negative = inhibition) at 1uM” value is 7.2%.
For the compound `CC(=O)Nc1ccc(NC(=O)CSc2nnc(NC(=O)c3ccc(Br)o3)s2)cc1`, the “hERG current change (%, negative = inhibition) at 1uM” value is reported as 6.1%.
`CC(C)(C)C(=O)Nc1c2c(nn1-c1ccccc1)CSC2`: the “hERG current change (%, negative = inhibition) at 1uM” value was 11.7%.
With `NS(=O)(=O)c1ccc(NC(=O)Cc2cccs2)cc1` the figure was 13.2%; with `O=C(CN1CCN(c2ccc(F)cc2)CC1)c1ccc(O)cc1O`, 6.76%.
Turning to `Cc1c(NC(=O)Cn2nc(C(=O)O)c3ccccc3c2=O)c(=O)n(-c2ccccc2)n1C`, the “hERG current change (%, negative = inhibition) at 1uM” value turned out to be 3.87%.
For `O=C(Cc1ccsc1)NNC(=O)c1ccccc1O`, the “hERG current change (%, negative = inhibition) at 1uM” value is reported as 6.92%.
For `CCn1c(=O)c(C(=O)NC(C)C)c(O)c2ccccc21`, the “hERG current change (%, negative = inhibition) at 1uM” value is listed as 17.3%.
With `Cc1ccc(-c2nn(C(C)(C)C)c3ncnc(N)c23)cc1`, the “hERG current change (%, negative = inhibition) at 1uM” value was 11.1%.
`COc1ccc2c(c1)CC(C1(O)C(=O)Nc3ccccc31)C2=O` (stereo not shown): the “hERG current change (%, negative = inhibition) at 1uM” value is recorded as -15.1%.
On to `CCOc1ccccc1NC(=O)C1CC2CCCC(C1)C2=O` (stereo not shown), for which the “hERG current change (%, negative = inhibition) at 1uM” value is listed as 6.33%.
With `Cc1ccc(S(=O)(=O)N(C)c2ccc(OCC(=O)Nc3ccc(C(=O)N(C)C)cc3)cc2)cc1C` the figure was 12.2%; with `CN(C)CCCN(Cc1ccccc1)C(=S)NCc1ccccc1`, 10.2%.
For the compound `Cc1cc(C)c2nc(C)cc(Nc3ccc(C(=O)N(C)C)cc3)c2c1`, the “hERG current change (%, negative = inhibition) at 1uM” value came to 4.59%.
As to `Cc1[nH]c(-c2ccccn2)nc(=S)c1Cl`, the “hERG current change (%, negative = inhibition) at 1uM” value is on record as 8.75%.
With `CC(C)CC(NC(=O)OC(C)(C)C)c1cn([C@@H](CCC(=O)OC(C)(C)C)C(=O)N2CCN(C(=O)OC(C)(C)C)CC2)nn1` (stereo partly shown), the “hERG current change (%, negative = inhibition) at 1uM” value stood at 11.7%.
For `CCn1c(=O)n(CC)c2cc([N+](=O)[O-])ccc21` the value was 17.4%; for `O=C(COC(=O)C1CC1)Nc1c(Cl)cccc1C(F)(F)F`, 13.9%.
For the compound `Cc1cc(NC(=O)COC(=O)COc2ccc3c(c2)CCC3)no1`, the “hERG current change (%, negative = inhibition) at 1uM” value amounted to 18.4%.
In the case of `CN(C(=O)C1CCCO1)c1nnc(-c2cnccn2)s1` (stereo not shown), the “hERG current change (%, negative = inhibition) at 1uM” value is 3.87%.
For `Cc1ccc2cc(C)c(SCC(=O)Nc3cc(C)on3)nc2c1`, the “hERG current change (%, negative = inhibition) at 1uM” value is listed as 16.6%.
With `Cc1cc(C)nc(NC2=NCCS2)n1`, the “hERG current change (%, negative = inhibition) at 1uM” value worked out at 17.9%.
For `C=CCSc1nc2c(c(=O)n(C)c(=O)n2C)n1CC` the value was 4.43%; for `COCCN(Cc1cc2cc3c(cc2nc1Cl)OCO3)C(C)=O`, -4.45%.
As for `O=C(CSc1ccccc1)N1CCc2ccccc21`, the “hERG current change (%, negative = inhibition) at 1uM” value is on record as 7.36%.
With `CC1CC(N(C(=O)c2ccc(Cl)cc2)c2ccccc2)c2ccccc2N1C(=O)c1ccco1` (stereo not shown) the figure was 16.1%.
Turning to `CCN(C(=O)CSc1nc2ccc(OC)cc2[nH]1)c1c(N)n(Cc2ccccc2)c(=O)[nH]c1=O`, the “hERG current change (%, negative = inhibition) at 1uM” value is 19.3%.
As to `O=C(CCC1CC(=O)Nc2ccccc21)NCc1ccc(F)cc1` (stereo not shown), the “hERG current change (%, negative = inhibition) at 1uM” value is recorded as -1.91%.
As to `Cc1oc(C(C)(C)C)cc1C(=O)NC(Cc1ccccc1)C(=O)O` (stereo not shown), the “hERG current change (%, negative = inhibition) at 1uM” value worked out at 10.4%.
For the compound `COc1ccc(CC(=O)NNS(=O)(=O)c2ccc3ccccc3c2)cc1OC`, the “hERG current change (%, negative = inhibition) at 1uM” value is given as 9.9%.
For `CC12CC3(C)CC(C)(C1)CC(C(N)=O)(C2)C3` the value was 12.8%.
As to `CCOC(=O)N1CCN(C2CCCN(C(=O)c3cccc(Cl)c3)C2)CC1` (stereo not shown), the “hERG current change (%, negative = inhibition) at 1uM” value was 8.44%.
Take `O=C(NCc1n[nH]c(=S)n1-c1cccc(Cl)c1)c1ccc(S(=O)(=O)N2CCCCC2)cc1`: the “hERG current change (%, negative = inhibition) at 1uM” value is recorded as 13.6%.
Regarding `CC(=O)Nc1ccc(N(C(=O)Cc2cccs2)C(C(=O)NC2CCCC2)c2ccncc2)cc1` (stereo not shown), the “hERG current change (%, negative = inhibition) at 1uM” value was 15.4%.
For the compound `O=C(NNC(=O)c1cncc(Br)c1)c1ccncc1`, the “hERG current change (%, negative = inhibition) at 1uM” value is reported as 6.83%.
For the compound `Nc1ncnc2c1ncn2CCc1ccccc1`, the “hERG current change (%, negative = inhibition) at 1uM” value was found to be 11.8%.
`O=C(NC1CCCC1)C(c1ccncc1)N(C(=O)c1csnn1)c1cccc(Cl)c1` (stereo not shown): the “hERG current change (%, negative = inhibition) at 1uM” value is 9.65%.
For the compound `CCC1CCCCN1S(=O)(=O)c1c(C)n(C)c(=O)n(C)c1=O` (stereo not shown), the “hERG current change (%, negative = inhibition) at 1uM” value is listed as 10.2%.
Turning to `COc1ccccc1C(=O)N1CCCC1(C#N)c1ccccc1` (stereo not shown), the “hERG current change (%, negative = inhibition) at 1uM” value is -6.18%.
`COC(=O)C1=C(C)NC(=O)NC1c1ccc(N2CCC(c3ccccc3)=N2)cc1` (stereo not shown): the “hERG current change (%, negative = inhibition) at 1uM” value worked out at 13.6%.
For `Cc1ccc(SCc2cc(=O)[nH]c(/N=C(\N)Nc3ccc(C)c(C)c3)n2)cc1`, the “hERG current change (%, negative = inhibition) at 1uM” value was 1.37%.
As to `C=CCn1c(SCC(=O)NCC2CCCO2)nc2scc(-c3ccccc3)c2c1=O` (stereo not shown), the “hERG current change (%, negative = inhibition) at 1uM” value was -0.902%.
With `NS(=O)(=O)c1ccc(CCNC(=O)COC(=O)COc2cccc(C(F)(F)F)c2)cc1` the figure was -4.29%.
On to `Cc1c(C(=O)N2CC(C)OC(C)C2)sc2nc(-c3ccccc3)cn12` (stereo not shown), for which the “hERG current change (%, negative = inhibition) at 1uM” value is recorded as 0.523%.
For `Cc1nc(N2CCN(C(=O)c3ccco3)CC2)[nH]c(=O)c1C` the value was 18.5%.
With `COC(=O)C1CCN(C(=O)CN2C(=O)c3ccccc3S2(=O)=O)CC1` the figure was 20.5%; with `NNC(=O)c1nc(-c2ccccc2)n2c1CCCCC2`, 0.842%; with `O=C(CCCN1C(=O)c2ccccc2C1=O)Nc1nc2ccccc2[nH]1`, 2.71%.
Take `Cc1ccnc(NC(=O)c2cccc(S(=O)(=O)N3CCN(c4ccccc4)CC3)c2)c1`: the “hERG current change (%, negative = inhibition) at 1uM” value is on record as 7.92%.
